Assay results from PubChem BioAssay AID1457 (National Center for Advancing Translational Sciences (NCATS), 2008).
Out of some 210,000 compounds screened, about 730 (0.35%) were called active. This list was built around the results that the source calls inconclusive (neither active nor inactive); the mix of calls is not that of the screen. The call rests on the fitted dose curve; in most records, active means well fitted inhibition curve with a large enough effect; inconclusive means small, poorly fitted or top-dose-only effect; inactive means no such curve, though single readings can be large or run the other way. Potencies beside an inconclusive call are fits to weak or partial responses and may not hold up.

experiment: qHTS Assay for Identifying the Cell-Membrane Permeable IMPase Inhibitors: Potentiation with Lithium; details: CHO-M1 cells, IP1 TR-FRET (IP-One), carbachol + lithium; series mostly up to 59.4 µM; activity, negative = IMPase inhibition: at the top concentration; further: nearly all actives have a fitted effect of over 50% in size;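 on activity, negative = IMPase inhibition: plate controls were basal vehicle for no effect and high inhibitor control for full effect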
Outline: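 CHO cells stably expressing M1 receptor (2000/well, cultured 16–30 h) treated 30 min at 37C with compound plus low lithium. Cytosolic IP1 by TR-FRET (665/620 ratio and 620 channel) after 10 min lysis; AC50 by Hill fit.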
Potency means the concentration at half of the fitted maximal effect.

SMILES | Potency | activity, negative = IMPase inhibition
CC(=O)c1ccc(N2CCN(C(=S)Nc3ccc(Cl)c(Cl)c3)CC2)cc1 | inconclusive: 14.1 µM [inhibitor, single point] | 
COc1ccccc1CNC(=O)C(=O)NCC1CCCO1 (stereo not given) |  | inactive: 1.73%
CCc1nnc(NC(=O)c2ccc(-c3ccc(Cl)cc3)o2)s1 | inconclusive: 28.2 µM [inhibitor, single point] | 
CCOc1ccc(-c2nnc(NC(=O)c3ccc(OCC(C)C)c(OC)c3)o2)cc1 |  | inactive: -4.85% [at 38.3 µM]
Cc1ccc(S(=O)(=O)c2nc(Nc3ccccc3C#N)sc2Cl)cc1 | inconclusive: 31.6 µM [inhibitor, single point] | 
CC1(C)Cc2ccccc2-c2nnc(SCC(=O)N3CCc4ccccc43)n21 | inconclusive: 11.2 µM [inhibitor, single point] | 
Cc1ccc(N2C(=O)CS(=O)C(c3ccccc3)C2=O)cc1C (stereo not given) |  | inactive: 6.2%
Cn1c(=O)c2[nH]c(CS(=O)(=O)Cc3nc4c([nH]3)c(=O)n(C)c(=O)n4C)nc2n(C)c1=O |  | inactive: 0.597%
COc1ccc(-c2nsc3c(N4CCCCC4)ncnc23)cc1 | inconclusive: 12.6 µM [inhibitor, single point] | 
O=C(CC1S/C(=N/N=C/c2cccnc2)NC1=O)Nc1ccccc1 (stereo not given) |  | inactive: -1.6%
COc1ccc(-c2cc(C(=O)Nc3cccc(C(C)=O)c3)no2)cc1 | inconclusive: 12.6 µM [inhibitor, single point] | 
CC1CCCCN1S(=O)(=O)c1ccc(N(C(=O)c2cnccn2)C(C(=O)NC2CCCC2)c2cccs2)cc1 (stereo not given) |  | inactive: -1.96%
Cc1ccc(S(=O)(=O)N/N=C2/CC(c3ccccc3)Oc3ccccc32)cc1[N+](=O)[O-] (stereo not given) | inconclusive: 0.447 µM [inhibitor, partial curve, poor fit] | 
CCC1=C(OC(=O)N(CC)CC)N2C(=O)OC(=NCCOC)[C@]2(C)[C@H]2C1=CC[C@H]1C(=O)NC(=O)[C@H]12 |  | inactive: -2.52%
CCOC(=O)c1c(C)nc2sc3c(=O)n(-c4ccc(OC)cc4)nnc3c2c1-c1ccc(OC)cc1 |  | inactive: -1.79% [at 38.3 µM]
COc1ccc(-n2cc(C(=O)c3cc4ccccc4oc3=O)c(C(C)=O)n2)cc1 | inconclusive: 28.2 µM [inhibitor, single point] | 
COc1ccc(-c2nsc(SCC(=O)Nc3ccc4c(c3)OCO4)n2)cc1 | inconclusive: 10 µM [inhibitor, single point] | 
Cc1nc2ncnn2c(C)c1CCC(=O)N1CCc2ccccc2C1 | inconclusive: 31.6 µM [inhibitor, partial curve] | 
Fc1ccc(/C=N/N2CCOCC2)c(F)c1 | inconclusive: 4.47 µM [inhibitor, single point] | 
Cc1ccnc(NC(=O)c2sc3ccccc3c2Cl)c1 | inconclusive: 12.6 µM [inhibitor, single point] | 
Cc1cc(C)n(-c2ccc(C(=O)OCC(=O)NCc3ccc(Cl)cc3)cc2)n1 | inconclusive: 28.2 µM [inhibitor, single point] | 
CCSc1nnc(NC(=O)COc2ccc3ccccc3c2)s1 | inconclusive: 28.2 µM [inhibitor, single point] | 
CN1CCN(C(=O)/C(C#N)=C/c2ccc(F)cc2)CC1 | inconclusive: 2.82 µM [inhibitor, single point] | 

SMILES | Potency | activity, negative = IMPase inhibition
CCn1c(SCC(=O)Nc2ccc(-c3nc4ccc(C)cc4s3)cc2)nnc1-c1ccccc1 | inconclusive: 14.1 µM [inhibitor, single point] | 
Nc1ccc(-c2nnc(-c3ccc(-c4ccccc4)cc3)o2)cc1 | inconclusive: 15.8 µM [inhibitor, single point] | 
O=C(Nc1cnc2ccccc2c1)c1ccncc1 | inconclusive: 12.6 µM [inhibitor, single point] | 
Cc1cccc(-n2c(C)cc(C=C(C#N)C#N)c2C)c1 | inconclusive: 10 µM [inhibitor, single point] | 
O=C1C2C(c3ccccc3)C=CC(c3ccccc3)C2C(=O)N1CCCO (stereo not given) |  | inactive: 29% [at 38.3 µM]
CCc1nnc(NC(=O)c2c(O)c3cccc4c3n(c2=O)CC4)s1 | inconclusive: 14.1 µM [inhibitor, single point] | 
Oc1ccccc1-c1cc(-c2ccco2)[nH]n1 |  | inactive: 19.2% [at 38.3 µM]
O=C(Cn1cc(/C=N/NC(=O)c2cccc(C(F)(F)F)c2)c2ccccc21)Nc1ccc(F)cc1 | inconclusive: 11.2 µM [inhibitor, partial curve, poor fit] | 
Cc1nc(C(=O)NC(C)C)nn1-c1cc(Cl)cc(Cl)c1 |  | inactive: 2.88%
Cc1ccc2cc3cc(C(=O)N4CCCCC4C)oc3nc2c1 (stereo not given) |  | inactive: -9.17% [at 38.3 µM]
CC(=O)Nc1ccc(NC(=O)c2sc3nc4c(c(-c5ccc(C)cc5)c3c2N)CCC4)cc1 | inconclusive: 28.2 µM [inhibitor, single point] | 
CCC(C)NC(=O)c1ccccc1NC(=O)C1COc2ccccc2O1 (stereo not given) | inconclusive: 11.2 µM [inhibitor, single point] | 
COC(=O)CCCCCc1ccc(C(C)=O)s1 | active: 10 µM | 
COc1cc(-c2cccc([C@H]3[C@@H]4C=CC[C@@H](C)[C@@H]4C(=O)N3Cc3ccccc3)c2)cc(OC)c1OC |  | inactive: 18.4%
Cc1ccc(NC(=O)NC2=N/C(=C(/C#N)C(=O)N3CCCC3)c3ccccc32)cc1 |  | inactive: 4.37% [at 38.3 µM]
Cc1cc(N2CCCC2)nc(-c2ccccc2O)n1 | inconclusive: 22.4 µM [inhibitor, single point] | 
CCN(CC)S(=O)(=O)c1ccc2c(c1)nc(CCC(=O)OCC(=O)Nc1cc(OC)cc(OC)c1)n2C |  | inactive: 4.43%
CCOC(=O)c1sc2nc(C)nc(SCC(=O)NC3CCS(=O)(=O)C3)c2c1C (stereo not given) | active: 12.6 µM | 
COCCN1C(=O)c2ccc(C(=O)O)cc2C1=O |  | inactive: 12.6% [at 38.3 µM]
COc1ccc(-c2c(C(F)(F)F)oc3cc(OCC(=O)Nc4ccccc4C(F)(F)F)ccc3c2=O)cc1OC | inconclusive: 12.6 µM [inhibitor, single point] | 
CCC(=O)c1ccc(/C=C/c2nc3ccccc3n2C)o1 | inconclusive: 12.6 µM [inhibitor, single point] | 
OCc1c(Cl)nc2ccccn12 |  | inactive: -3.04%
